Test results: patent US9217032B2, “Methods for treating colorectal cancer” (LES LABORATOIRES SERVIER, priority 2010, dated 2015)

B1: MAb13: murine C-terminal anti-hPG monoclonal antibody, hybridoma 2C6C3C7, VH SEQ ID NO:60, VL SEQ ID NO:64 (antibody, V domains shown)
VH: EVQLVESGGGLVQPGGSLKLSCAASGFIFSSYGMSWVRQSPDRRLELVASINTFGDRTYYPDSVKGRFTISRDNAKNTLYLQMTSLKSEDTAIYYCARGTGTYWGQGTTLTVSS
VL: DVVLTQTPLTLSVTIGQPASISCKSSQSLLDSDGKTYLNWLLQRPGQSPKRLIYLVSKLDSGVPDRFTGSGSGTDFTLKISRVEAEDLGVYYCWQGTHFPQTFGGGTKLEIK
B2: MAb16: murine N-terminal anti-hPG monoclonal antibody, hybridoma 1E9D9B6, VH SEQ ID NO:61, VL SEQ ID NO:65 (antibody, V domains shown)
VH: QVQLQQSGAELVKPGASVKLSCKASGYTFTSYYMYWVKQRPGQGLEWIGEINPSNGGTNFNEKFKSKATLTVDKSSSTAYMQLSSLTSEDSAVYYCTRGGYYPFDYWGQGTTLTVSS
VL: B1 VL with L4M, Q17R, N39Y, K58E, F67I, F99S, Q101Y

What was measured:
Format in all cases: cell-based, human
[1] = system: CRC1 primary colorectal cancer cells; experiment: Pre-treatment of CRC1 cells: ALDH1 expressing cells by FACS; conditions: 72 hours in conventional adherent culture; FIG. 22
Method: (§1) CRC1 cells were obtained from a human colon carcinoma biopsy according to standard procedures. After being dissociated in Accumax (Sigma) for 45 minutes at 37° C., CRC1 cells (100,000 cells/well) were grown under conventional adherent culture conditions in serum free DMEM medium for 72 hours in the presence or absence of anti-hPG monoclonal antibodies MAb5, MAb8, MAb13 or MAb16. Experiments were carried out in blinded fashion. At the end of the treatment period, two different assays were performed on the cells. First, the percentage of cells expressing ALDH1, a marker of colorectal cancer stem cells, was determined by FACS. In the second assay, for each treatment group, 200 cells/well were plated in six wells of a low adherence 24-well plate in 500 μl of serum-free M11 medium supplemented with bFGF and EGF, and grown for 7 days without further treatment. At the end of this period, photographs were taken and the number of spheres per well was counted, and sphere surface area measured.

[2] = system: CRC1 primary colorectal cancer cells; experiment: Pre-treatment of CRC1 cells: spheroids in low adherence culture; conditions: 72 hours pre-treatment, then 7 days low adherence without antibody, FIG. 23, MAb5, MAb8, MAb16 p<0.05
Method: as §1

[3] = system: CRC1 primary colorectal cancer cells; experiment: Spheroid formation by CRC1 cells in low adherence culture, monoclonal antibodies; conditions: CRC1, 3 μg/ml; p<0.05 one-way ANOVA with Bonferroni; FIG. 20
Method: CRC1 cells were obtained from a human colon carcinoma biopsy according to standard procedures. After being dissociated in Accumax (Sigma) for 45 minutes at 37° C., cells were plated in low adherence 96 well-plates (Corning) at a density of 100 cells per well in M11 medium (DMEM/F12 with 20 ng/ml EGF, 10 ng/ml FGF, 20 μg/ml insulin, N2 supplement, 2 μg/ml cyproflaxin, 5 μg/ml gentamycin and 3 mg/ml glucose). For each treatment arm, 10 wells were used. Starting on the first day, cells were treated twice daily with one of four different anti-progastrin monoclonal antibodies, MAb5, MAb8, MAb13 or MAb16 (3 μg/ml) or the same concentration of monoclonal antibody P3X63Ag8 (ATCC, Ref TIB-9) or medium with no antibody added as controls. Thereafter, treatment was performed once daily for 8 days. Spheres were photographed daily for subsequent counting. All experiments were carried out in blinded fashion. After the conclusion of the experiment, the number of spheres from each treatment art was counted.

Molecule | number of CRC1 cells expressing ALDH1 compared to control [1] | number of spheroids formed after pre-treatment compared to control [2] | number of spheroids formed compared to non-specific antibody and medium alone [3]
B1 | reduce the number CRC1 primary colorectal cancer cells expressing ALDH1 | reduced the number of spheroids compared to control, the effect did not reach statistical significance | effective to reduce the number spheroids
B2 | reduce the number CRC1 primary colorectal cancer cells expressing ALDH1 | effective to reduce the number of spheroids | effective to reduce the number spheroids

Residue numbers refer to the chain shown, from its start.
